Assay results taken from the supplement of paper PMC11417369.
Some of the results follow.

System: PfSIP2 AP2 domain 1 (GST-tagged)
Assay: gcPBM binding intensity (ln(normalized median fluorescence intensity)); higher = stronger DNA binding
In short: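 Binding intensity is defined as the maximum Masliner-normalised natural-log median intensity across replicate spots for either probe orientation. It was measured on an Agilent 4 × 180k array of primer-extended double-stranded 36-bp intergenic genomic probes and negative controls, to which GST-tagged P. falciparum DNA-binding domains made in E. coli were applied for 1 h in 1× PBS with 1% milk, 0.2 mg/ml BSA, 0.5% salmon testes DNA and 0.03% Triton X-100. Detection was by Alexa488 anti-GST antibody and scanning at 488 nm.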

Sequence | gcPBM binding intensity (ln)
ATAAAATACAAAGGGACACACATATGAGTCTACAAA [CACACA_site3092] | 6.83
TCACAAATGTATTATACACACAAGTTTTCTTTAATA [CACACA_site4107] | 6.89
ATATTAACTTTTATTACACACTCTCAACTTTTATTT [CACACA_site6176] | 7.09
AAGTTATACACATCAACACACACATACAACGTGGTG [CACACA_site8312] | 6.89
TAAACACATTATATATGTACATAATAAAAAAAAAAA [XGTACX_site7907] | 7.12
ATATATAAAAAAGCTAGTACACAAAAATATATAATG [XGTACX_site3001] | 7.37
AAAAAAATTTATTAAAGTACTAGATAATCATATAAA [XGTACX_site1455] | 7.09
TTCTTTTCTCTTTTAATCATATTATATAAATGAATA [CACACA_negctrl_site820] | 7.29
AGAATAATATAATAAAGTACAAACCTATCTAACTAC [XGTACX_site5477] | 7.09
ATTATAAATAAATATTGTACTTATATGATCTATTTG [XGTACX_site3820] | 6.91
CCTTTCACATATAATACATGCATTATTATATATGAA [TGCATGCA_site287] | 7.51
ATTGCATTTGTAGATAATACAATATGGATTGTTATA [CACACA_negctrl_site1749] | 6.71
GGATATATTATATGTACACACACATATAAGGGATTA [CACACA_site7884] | 7.09
AAAAATTTTATATTCACACACATATTTATATTTATA [CACACA_site6439] | 6.86
GAGTAAAAATTAAAATGTACATATTATATATATTTA [XGTACX_site1319] | 6.83
ATGAATGTCCCAAGATGTACAATTATATATAACACA [XGTACX_site4702] | 7.21
AAATCCTTATTTTTTTGTACGTAATATTTTATATGG [XGTACX_site1530] | 6.94
TAATAAATAAGACACACACACATATATATATATTAT [CACACA_site1389] | 7.07
TTTTAAGATATAAATTAATACTTATATATATAGATA [CACACA_negctrl_site22] | 6.75

Sequence | gcPBM binding intensity (ln)
ATAATTATTAATATAGTGCATTGGCATAATAATATA [GTGCAC_site9810] | 8.38
ATATTAATATAATGTGCATGTTCAATGATCTTTTTA [TGCATGCA_site22] | 7.37
TTATACAACAAGAAAATTATAAAATGTAACATATAT [GTGCAC_negctrl_site406] | 7.05
TATTTTTTAACACAACGTACATATAAAAAATATTTA [XGTACX_site6025] | 7.08
TACAAATATATATGCACACACATATATGTATATGTG [CACACA_site3075] | 7.37
TTAGATATAATATATACACACCAACGAACGAAGAAA [CACACA_site4763] | 7.23
AGTAAATAACACAAATATGAATGAAAAAAAAAATAT [GTGCAC_negctrl_site235] | 7.15
CAACTTATTAAAAGTCGTACAAATGGGAAGAAGGAA [XGTACX_site6325] | 7.36
TGTGCGGAAATAAGTGCACACATAGATATCTGTATT [CACACA_site5935] | 10.9
ATATATATATAGTACGCACACATAGTTGTACATTAA [CACACA_site2787] | 8.63
CGTATGAGTAAATACACACCCACGTATATATATAAA [CACACA_site5728] | 7
TATATACACATATATAAACACACAAAAAAAAAAAAA [CACACA_site8626] | 7.01
ATACAAATTGTTTAAAGTACAAATTACACCTCTTAA [XGTACX_site6888] | 6.93
CATACAGACATACATACACACATACATACAGACATA [CACACA_site6996] | 7.2
TGTAAATATATATATACACACACACCGAAGCAATAG [CACACA_site8960] | 7.36
TTTTTTTTTTTTTAAACATGCATATTAATATTATAT [TGCATGCA_site820] | 7.01
GTATATCACACATTTGCATGTTGTCAATAGTTTATC [TGCATGCA_site134] | 7.06
TAAAAAGGAAGACACACACACACATATATAAATATA [CACACA_site7657] | 6.87
ACATTAAAAAAAAAATGTACATAAATATTTTTCCTT [XGTACX_site4361] | 6.91

Sequence | gcPBM binding intensity (ln)
ATCTTTTATATAAAATGTACAGAGTTTGAAAGAATA [XGTACX_site8826] | 7.3
AATTTTATTCATTGAGCACACAAAATAAATTATCAA [CACACA_site9079] | 6.87
GTATTACAACGACACACACACCTATATATCATAGTA [CACACA_site7877] | 7.15
GATATTATGTGTTTGGTATTTTTTGATGTTGGTAGG [XGTACX_negctrl_site563] | 7.01
TAGAACAAATAAAACACACACATATAAATATAGATG [CACACA_site7325] | 7.14
GTGCAAAATATTTTTACACACAAATTCTTACAACAG [CACACA_site7556] | 9.32
ATATCTATGTTTATCTCGAATAACTTAAAAAATTAT [CACACA_negctrl_site1131] | 6.93
TCTTTCTAAAGATGTAGTACAAAATAAATATAATAT [XGTACX_site6564] | 7.17
TTTATACAAACAACTTTATATTAATGTTTAACGGAG [GTGCAC_negctrl_site396] | 7.08
AAGGCAAACAAACACACACACATATATACATATATA [CACACA_site2122] | 7.17
TTATCACACCTTTTTTGTACGAAATAAAAAAAAAAA [XGTACX_site5564] | 7.22
TAATATGCTCATGTAACACACATTTGCATATTTTTC [CACACA_site1357] | 6.66
ATATGTATGAAGTGTACACATATATTGTATTTTCTT [CACACA_site5503] | 7.01
GTAAGCACACATAGTTGTACATTAATAAAAATAAAT [XGTACX_site5876] | 7.22
TTCCTATAAAAAAACACACACATATAAATATATATA [CACACA_site2318] | 7
AACAATTTATATAAAGCACACATGGGAAGGAAATAC [CACACA_site1712] | 7.81
TACAATTTAATATATACACACAAATAAATTATGCTT [CACACA_site856] | 6.73
ATATATGACAAATGTAGTACAAATTATTGTATCATA [XGTACX_site3675] | 6.97
